In all, about 43,000 compounds went through this assay and about 200 (0.47%) were called active. Not shown: some 12% with an inconclusive outcome. Calls come from the whole dose curve; as a rule, active = well fitted cell-killing curve with a large enough effect; inconclusive = small, poorly fitted or top-dose-only effect, or effect the other way; inactive = flat fitted curve, though single readings scatter. The list shows a part of the results.
% is set by controls: 0 for no effect and ±100 for the full control effect.

A short description of the test: Cell viability qHTS assay in S16 Pmp22-F2sN cells. Note: nearly all actives have a fitted effect of over 65% in size. The settings on record: S16 Pmp22-F2sN Schwann cells viability, CellTiter-Glo, 24 h; series mostly up to 57.5 µM; activity change, negative = cytotoxicity: at the top concentration. The method, boiled down: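 Used to flag compounds lowering reporter output through toxicity, this quantitative HTS measures ATP-based CellTiter-Glo luminescence in S16 Pmp22-F2sN Schwann cells after 24 h compound exposure at 37C.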
Turning to `CCOC(=O)C1=C(CS(=O)(=O)c2ccc(OC)c(Cl)c2)NC(=O)NC1c1cccc(OC)c1` (stereo not drawn), the “activity change, negative = cytotoxicity” value was inactive: 1.28%.
Turning to `Cc1ccc(NC(=O)N2CCC(CN3CCCC3)CC2)c(C)c1`, the “activity change, negative = cytotoxicity” value was inactive: 13.4%.
The same measure for `Cc1ccc(-c2nc(C(=O)NCc3ccccc3Cl)c3n2CCCCC3)cc1`: inactive: 1.98%; for `CCc1cccc(NC(=O)c2ccc(NC(=O)N3CCSc4ncccc43)cc2)c1`: inactive: -0.0106%; for `O=C(CCCc1ccccc1)NC1CC(=O)N(c2ccc(F)cc2)C1` (stereo not drawn): inactive: 7.8%.
With `COC(=O)C1CCN(S(=O)(=O)c2ccc(N3CCCCS3(=O)=O)cc2)CC1`, the “activity change, negative = cytotoxicity” value was inactive: -4.5%.
The same measure for `COC(=O)c1cc(C)nc2c1c(=O)nc(SCc1ccccc1C)n2C1CC1`: inactive: 3.97%.
As for `Cc1ccc(C(=O)NCC(c2ccc3c(c2)OCO3)N2CCOCC2)cc1` (stereo not drawn), the “activity change, negative = cytotoxicity” value is inactive: 7.26%.
Regarding `CCc1nn(CCCC(=O)N2CCN(c3cccc(OC)c3)CC2)c(=O)c2cc3occc3n12`, the “activity change, negative = cytotoxicity” value is inactive: 18.9%.
Next, `Cc1c(-c2nc(-c3ccc4c(c3)OCO4)no2)nnn1-c1ccc(C(C)C)cc1`: inactive: 0.103%; `Cc1cccc(NC(=O)C(Cc2ccccc2)NS(=O)(=O)c2ccc3c(c2)c(=O)n(C)c(=O)n3C)c1` (stereo not drawn): inactive: 9.63%; `Cc1ccc(NC(=O)N2CCN(c3cc(-c4noc(C)n4)ccc3C)CC2)c(F)c1`: inactive: -17.7%.
The same measure for `CCC(=O)Oc1ccc(C2Nc3ccccc3-c3nnc(SC)nc3O2)cc1` (stereo not drawn): inactive: -5.4%; for `Cc1ccc2cccc(NC(=O)C(C)Oc3ccc(Cl)cc3Cl)c2n1` (stereo not drawn): inactive: 0.673%.
For the compound `CCOc1ccc(C(c2c(O)cc(C)n(Cc3ccco3)c2=O)N2CCCCC2)cc1` (stereo not drawn), the “activity change, negative = cytotoxicity” value is inactive: 0.312%.
Next, `COc1cccc(CNS(=O)(=O)c2ccc3c(c2)C(C(C)C)C(=O)N3)c1` (stereo not drawn): inactive: -24.8%.
The same measure for `Cc1ccc(NC(=O)CC2Sc3ccc(C(F)(F)F)cc3NC2=O)cc1` (stereo not drawn): inactive: -16.9%; for `Cc1cc(-c2ccccc2)n2nc(-c3ccccc3)cc2n1`: inactive: 4.17%; for `Cc1c(C(=O)O)oc2c1-c1nn(Cc3ccc(Cl)cc3)cc1CC2`: inactive: -6.22%.
Next, `CN(C)CCNC(=O)C(=O)NCC(c1ccc2c(c1)OCO2)N1CCOCC1` (stereo not drawn): inactive: 2.45%; `Cc1ccc(OCCSc2nc(C)c(Cc3ccccc3)c(=O)[nH]2)cc1`: inactive: 12.4%.
Turning to `Cc1cc(C)c(NC(=O)CSc2nncn3c2cc2oc(C)cc23)c(C)c1`, the “activity change, negative = cytotoxicity” value was inactive: 1.66%.
The same measure for `COc1ccc(CNC(=O)Nc2cn(CC(C)C)c(=O)c3ccccc23)cc1`: inactive: -9.29%.
The same measure for `CC(=O)c1ccc(NC(=O)CN(C)S(=O)(=O)c2cnc[nH]2)cc1`: inactive: -0.845%; for `Cc1cc(Cl)ccc1OCC(=O)N1CCC(c2nc3ccccc3s2)CC1`: inactive: 8.18%.
The same measure for `Nc1c(C(=O)Nc2cccc(F)c2)c2ccccn2c1C(=O)c1ccccc1`: inactive: 19.3%.
For `Cc1cccc(C(=O)Nc2ccc3nc(SCCOc4ccccc4)sc3c2)c1`, the “activity change, negative = cytotoxicity” value is inactive: 18.7%.
Next, `COc1ccc(CCNc2nc(SCc3ccc(Cl)cc3)nc3ccccc23)cc1OC`: inactive: -11.2%; `Nc1ncc(S(=O)(=O)Nc2ccc(F)cc2F)cn1`: inactive: 0.189%; `CCc1cnc2c(c1SCC(=O)NCc1ccc(F)cc1)c(=O)n(C)c(=O)n2C`: inactive: -3.78%.
With `COc1ccc(C2C=C(c3ccccc3)Nc3nc(NC(=O)/C=C/c4ccccc4Cl)nn32)cc1` (stereo not drawn), the “activity change, negative = cytotoxicity” value was inactive: -0.513%.
Next, `COc1ccc(NC(=O)CN2C(=O)COc3ccc(S(=O)(=O)N4CCCCC4)cc32)cc1OC`: inactive: 8.58%; `Cc1cc(C)c2c(c1)c(C)cc1nnc(SCC(=O)c3ccc(F)cc3)n12`: inactive: -2.22%.
The same measure for `COC(=O)c1ccccc1NC(=O)Cn1c(=O)cc(C)c2c(C)nn(C)c21`: inactive: -27.8%; for `Cc1ccc(C)c(Cn2c(C(=O)O)c(CNCc3cccs3)c3ccccc32)c1`: inactive: 8.89%; for `COc1ccc(N2CCN(C(c3ccccc3F)c3sc4nc(-c5ccco5)nn4c3O)CC2)cc1` (stereo not drawn): inactive: 5.1%.
For the compound `CCOC(=O)c1c(NC(=O)COc2cccc(C)c2C)sc(C(C)=O)c1C`, the “activity change, negative = cytotoxicity” value is inactive: 6.78%.
The same measure for `COc1ccc(Cl)cc1NC(=O)Cn1c(=O)c(-c2ccccc2NC(C)=O)nc2ccccc21`: inactive: 1.58%.
Next, `COc1ccc(OC)c(CNS(=O)(=O)c2ccc(-c3coc(C)n3)cc2)c1`: inactive: -6.53%.
The same measure for `CC(=O)c1cc(-c2ccccc2)n(CC(=O)Nc2ccc(C)c(C)c2)c1C`: inactive: -21.5%.
On to `COc1ccccc1-c1noc(-c2ccc(NC3CCCC3)c([N+](=O)[O-])c2)n1`, for which the “activity change, negative = cytotoxicity” value was inactive: -7.85%.
Next, `Cc1cc2nc(-c3ccc(NC(=O)c4ccccc4F)cc3)oc2cc1C`: inactive: -1.57%.
For the compound `CCOc1ccc(CNC(=O)CS(=O)(=O)c2cccc3nsnc23)cc1`, the “activity change, negative = cytotoxicity” value is inactive: -0.653%.
Next, `COc1ccccc1-c1nc(SCC(=O)NCc2ccccc2)c2c(=O)n(C)c(=O)n(C)c2n1`: inactive: 5.36%.
Next, `COCCNC(=O)c1ccc2nc(Cc3ccccc3)oc2c1`: inactive: -1.33%; `CC(C)N(CCCNC(=O)Cn1ncc2c([nH]c3ccccc32)c1=O)Cc1ccccc1`: inactive: 7.88%.
Next, `Cc1ccc(Nc2nnc(-c3ccc(C)c(S(=O)(=O)N4CCOCC4)c3)c3ccccc23)cc1`: inactive: 3.97%; `Cc1cc(C)c2c(=O)cc(C(=O)Nc3sc4c(c3C(=O)NCC3CCCO3)CCCC4)oc2c1` (stereo not drawn): inactive: 8.72%.

Values taken from PubChem BioAssay AID1508642 (National Center for Advancing Translational Sciences (NCATS), 2021).
